Test results from PubChem BioAssay AID463173 (ICCB-Longwood Screening Facility, Harvard Medical School, 2010).
In all, about 52,000 compounds went through this assay and about 1,700 (3.3%) were called active. No stated cut-off is given here; in the data, active means survival mostly below about 52% (no sharp cut-off); inactive means mostly above about 56%. This is one part of the list.

Each compound was assayed on Wild type (assay: S. aureus survival, RN4220 and DeltatarO strains – OD600, teichoic acid synthesis inhibitors, primary screen (AID 463173)). Settings: S. aureus RN4220 wild type/DeltatarO growth, OD600, 18 h, stronger effect = lower value, screened at 18.75 µg/mL (by protocol).

SMILES | survival
CCCS(=O)(=O)N1CCC(n2c(C(F)(F)F)nc3cccnc32)CC1 | inactive: 78%
Cc1ccsc1CN(C(=O)c1oc2ccccc2c1C)C1CCS(=O)(=O)C1 (stereo not drawn) | inactive: 83%
Cc1ccc(CNC(=O)C(=O)NCC(c2cccnc2)N2CCN(c3ccccc3F)CC2)cc1 (stereo not drawn) | inactive: 78%
COc1cccc2sc(N3CCN(C(=O)CCS(=O)(=O)c4ccc(F)cc4)CC3)nc12 | inactive: 87%
O=C(c1ccccc1)N1CCN(C(=O)c2cc3ccccc3oc2=O)CC1 | inactive: 106%
CC(C)Oc1ccc(CNC(=O)C2CCN(c3nc4ccccc4n(C)c3=O)CC2)cc1 | inactive: 96%
CCc1ccc(C2NC(=O)c3[nH]nc(-c4cccc(OC)c4)c32)cc1 (stereo not drawn) | inactive: 74%
Cc1ccc(S(=O)(=O)C(=O)Nc2cccc3nsnc23)cc1 | inactive: 93%
Cc1ccc(NC(=O)Cn2nnc(C(=O)NCCc3ccccc3)c2N)cc1C | inactive: 64%
Cc1oc2ncn(C)c(=O)c2c1C(=O)NCCCN(Cc1ccccc1)C(C)C | inactive: 81%
CCn1c(=O)c2sccc2n2c(CCC(=O)Nc3ccc(OC)c(Cl)c3)nnc12 | inactive: 71%
Cc1ccc(C(=O)Nc2nc(-c3ccccc3)ns2)cc1 | inactive: 68%
CS(=O)(=O)N1CCc2cc(C(=O)Nc3cccc(F)c3)ccc21 | inactive: 81%
COc1cccc(C(=O)N2CCN(Cc3cccc(C)c3)CC2)c1OC | inactive: 109%
COc1ccccc1CC(=O)Nc1ccc2nc(N3CCC(C)CC3)cc(C)c2c1 | inactive: 71%
Cc1ccc(C)c(Cn2c3ccccc3c3cnn(CC(=O)NC(C)c4ccccc4)c(=O)c32)c1 (stereo not drawn) | inactive: 83%
CCCNC(=O)CN1CCN(c2ncc(NC(=O)c3ccc(Cl)cc3)cc2C(=O)O)CC1 | inactive: 101%
CCOC(=O)c1ccc(-c2ccc(/C=C(\C#N)C(=O)Nc3ccc(C)cc3OC)o2)cc1 | inactive: 92%
COCCNC(=O)Cn1ncc2c(C)n(Cc3ccc(C)cc3)c(C)c2c1=O | inactive: 83%
CCCCN1C(=O)C(O)(c2c(C)[nH]c3ccccc23)c2ccccc21 (stereo not drawn) | inactive: 69%

SMILES | survival
CCCOc1ccccc1C1Oc2nc(SC)nnc2-c2ccccc2N1C(C)=O (stereo not drawn) | inactive: 73%
Cc1cccc(-n2ncc3c(N4CCCCCC4)ncnc32)c1 | inactive: 73%
Cc1ccc(CN(Cc2ccco2)C(=O)c2oc3ccc(C)cc3c2C)cc1 | inactive: 92%
Cc1ccc(C)c(CNC(=O)c2cnc3sc(N4CCCC4)nn3c2=O)c1 | inactive: 75%
CCOc1ccc(C(=O)c2cn(Cc3ccc(F)cc3)c3ccc(F)cc3c2=O)cc1 | inactive: 86%
CSc1ccc(C2c3c(oc4ccccc4c3=O)C(=O)N2CCCN2CCOCC2)cc1 (stereo not drawn) | inactive: 73%
CC(C)(C)C(=O)OC1=CN(Cc2ccccc2)S(=O)(=O)c2ccccc21 | inactive: 75%
CCc1ccc(NC(=O)CSc2nc3ncccc3[nH]2)cc1 | inactive: 75%
O=S(=O)(c1ccccc1)c1nc(-c2ccc(F)cc2)oc1N1CCCCCC1 | inactive: 19%
c1ccc(Nc2nc(N3CCCCC3)nc(N3CCCCC3)n2)cc1 | inactive: 84%
CN(C)c1nc(N(C)C)nc(N(C#N)CN2C(=O)c3ccccc3C2=O)n1 | inactive: 107%
CCOc1ccc(/C=C/C(=O)Nc2sc3c(c2C(=O)OC)CCC3)cc1 | inactive: 86%
COc1cccc(NC(=O)c2c(C(=O)Nc3ccccc3)sc3nc(C)cc(=O)n23)c1 | inactive: 81%
COc1cccc(Cn2c(SCc3ccc(C(=O)N4CCC(C)CC4)cc3)nc3ccncc32)c1 | inactive: 134%
CCC(Cc1ccccc1)NC(=O)c1csc2c1CCCCC2 (stereo not drawn) | inactive: 120%
COc1cc(NC(=O)CCCSc2nc(-c3ccco3)cc(C(F)(F)F)n2)cc(OC)c1OC | inactive: 61%
COc1ccc2c(C)cc(SCC(=O)Nc3nsc(-c4ccc(C(C)(C)C)cc4)n3)nc2c1 | active: 5%
CCOc1ccc(N=C(c2ccccc2)N2CCOCC2)cc1 | inactive: 99%
COc1ccc2oc(-c3ccc(C)c(NC(=O)c4ccc(N5CCCCC5)c([N+](=O)[O-])c4)c3)nc2c1 | inactive: 77%
CC(C)(C)OC(=O)N1CCC(c2c(C(=O)NCCN3CCOCC3)cnn2-c2ccccc2)CC1 | inactive: 64%

SMILES | survival
CCN(c1ccccc1)S(=O)(=O)c1cc(C(=O)Nc2ccc(Br)cc2)ccc1F | active: 1%
CCOC(=O)c1c(Nc2ccccc2)nnc(-c2ccccc2)c1-c1ccccc1 | active: 5%
O=C(Cn1c(=O)oc2ccccc21)NCc1ccc(Cl)cc1 | inactive: 76%
COc1ccccc1NC(=O)C1=C(C)Nc2ncnn2C1c1ccc[nH]1 (stereo not drawn) | inactive: 131%
COc1ccc(CNC(=O)CN2CCSc3ccccc32)c(OC)c1 | inactive: 129%
CCN(CC)C(=O)Cn1c(SCC(=O)Nc2ccc(C)c(C)c2)nc2ccccc21 | inactive: 133%
CN1CCN(c2ncc3c(n2)CCN(Cc2ccccc2Cl)C3)CC1 | inactive: 71%
Cc1ccc(-n2ncc3c(NCCc4ccccc4)ncnc32)cc1 | inactive: 76%
CCOc1ccc(S(=O)(=O)n2nc(C)c(S(=O)(=O)N3CCCCCC3)c2C)cc1 | inactive: 111%
Cc1cc2oc(C(=O)N(Cc3ccccc3)C3CCS(=O)(=O)C3)cc(=O)c2cc1C (stereo not drawn) | inactive: 82%
Cc1ccc(NC(=O)CN2C(=O)C(c3ccccc3)=NC2(C)C)cc1C | inactive: 78%
CCc1ccc(-n2c(=O)c3cccnc3n2CC(=O)N(CC)c2cccc(C)c2)cc1 | inactive: 71%
COc1cccc(C(=O)Nc2ccc3c(c2)CCCN3C(=O)c2cccs2)c1OC | inactive: 88%
Cc1ccccc1C(=O)Nc1ccccc1C(=O)OCc1cc(=O)n2nc(C3CC3)sc2n1 | inactive: 129%
O=C(NC1CCSC1=O)c1ccc(Br)cc1 (stereo not drawn) | inactive: 118%
Cc1cc(-c2nc3ncccc3o2)ccc1NC(=O)COc1ccc(C(C)(C)C)cc1 | active: 26%
Cc1c2cnn(-c3ccccc3)c(=O)c2c(C)n1CC(=O)NCc1ccc(Cl)cc1 | inactive: 96%
CCN1CCCC1CNCC(=O)Nc1ccc(C)c(Br)c1 (stereo not drawn) | inactive: 100%
